Among the data in PubChem BioAssay (NCATS) are AC50 and z-score values, retold here.

Assay [1] in a line: qHTS drug screen for cell cycle checkpoint inhibitors in PARPi-resistant BRCA-mutant ovarian cancer cell lines. (AID 1963452). The settings on record: PEO1/OlaR viability, CellTiter-Glo luminescence, 96 h. Summed up: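 PEO1, PEO4 and PEO1/OlaR ovarian cancer cells, 600 per well, exposed 96 h at 37C to a dilution series. Viability read by CellTiter-Glo luminescence, normalized to DMSO and empty wells; activity summarized as Z-AUC.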
In general terms: qHTS replaces the single test concentration by a dilution series.

The nature of assay [2]: qHTS for identification of novel therapeutic agents for treatment of microphthalmiaassociated transcription factor (MiT) renal cell carcinoma (RCC) (AID 1963991). The note with it: CellTiter-Glo, 48 h; for z-score: stronger effect = lower value. The method in brief: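 Viability of three TFE3-fusion renal carcinoma lines measured by CellTiter-Glo after 48 h treatment with each of 1912 compounds at 11 concentrations. Responses scaled between DMSO (100%) and empty wells (0%) before curve fitting.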

Setting [3] is: measured here: PEO1 parental viability.
Setting [4] is: TFE3-RCC UOK109 viability, measured here: UOK109 Z-AUC.
The mark [5] stands for this setting: TFE3-RCC viability, measured here: UOK124 Z-AUC.
Where [6] appears, read: TFE3-RCC viability, measured here: UOK124 cell viability.
Setting [7] is: TFE3-RCC viability, measured here: UOK145 Z-AUC.
Setting [8] is: TFE3-RCC viability, measured here: UOK145 cell viability.

The other results are listed elsewhere or left out. Shown are side measurements of this screen, not its main read-out; they come without a call. For some of these results: Most of these compounds were active or inconclusive in the main read-out, so they are no random draw. Words in brackets tell the shape of the fitted curve; partial curves, single points and poor fits give uncertain potencies.
Tags give direction and shape of the fitted curve.

As to `O=C(Nc1ccc(OC(F)(F)F)cc1)c1sccc1NCc1ccnc2ccccc12`, the AC50 (as a rule, the midpoint of the concentration-response curve, whichever way the signal moves) in assay [1] (setting [3]) was 27.5 µM [falling, partial curve, poor fit]; in assay [2] (setting [6]) it was 33.2 µM [falling, single point]; in assay [2] (setting [8]), 20.9 µM [falling, partial curve, poor fit]. The z-score in assay [2] (setting [4]) was -0.0894; in assay [2] (setting [5]), -0.558; in assay [2] (setting [7]), 0.08.

For the molecule `Cc1ccnc(NS(=O)(=O)c2ccc(NC(=O)Nc3ccc(S(=O)(=O)Nc4nccc(C)n4)cc3)cc2)n1`, the AC50 in assay [1] (setting [3]) is 0.049 µM [falling, full curve, poor fit]; in assay [2] (setting [6]), 1.32 µM [falling, partial curve, poor fit]; in assay [2] (setting [8]), 20.9 µM [falling, partial curve, poor fit]. The z-score in assay [2] (setting [4]) was 0.544; in assay [2] (setting [5]), -0.0954; in assay [2] (setting [7]), 0.43.

Turning to `CC(C)n1cnc2c(NCCCCCCNC(=O)OC(C)(C)C)nc(NCCO)nc21`, the half-maximal activity concentration (AC50) in assay [1] (setting [3]) was 8.71 µM [falling, partial curve]; in assay [2] (setting [6]), 11.8 µM [falling, partial curve, poor fit]. Moreover, the z-score is 1.1 in assay [2] (setting [4]), -0.077 in assay [2] (setting [5]) and 0.802 in assay [2] (setting [7]).

As for `CCCCCCCCCCCCCC(=O)N[C@H](CO)[C@H](O)c1ccc([N+](=O)[O-])cc1`, the half-maximal activity concentration (AC50) in assay [1] (setting [3]) was 24.5 µM [falling, single point]; in assay [2] (setting [6]), 16.6 µM [falling, partial curve]. Also, the z-score in assay [2] (setting [4]) turned out to be 0.433; in assay [2] (setting [5]), 0.476; in assay [2] (setting [7]) it was 0.743.

On to `CCN(CC)CCCCNc1ncc2cc(-c3cc(OC)cc(OC)c3)c(NC(=O)NC(C)(C)C)nc2n1`, for which the AC50 in assay [1] (measured here: PEO4 viability) was 24.5 µM [falling, single point]; in assay [2] (setting [6]), 18.7 µM [falling, partial curve]; in assay [2] (setting [8]), 14.8 µM [falling, partial curve]. Also, the results for the z-score in assay [2] (setting [4]), in assay [2] (setting [5]) and in assay [2] (setting [7]) were -0.133, 0.154 and -0.0627, respectively.

As for `NC(=O)c1c(OCc2c(F)cc(Br)cc2F)nsc1NC(=O)NCCCCN1CCCC1`, the concentration at half-maximal activity (AC50) is 27.5 µM [falling, single point] in assay [1] (measured here: PEO4 viability); 18.7 µM [falling, partial curve] in assay [2] (setting [6]); 10.5 µM [falling, partial curve] in assay [2] (setting [8]). Besides, the z-score was -0.111 in assay [2] (setting [4]), -0.144 in assay [2] (setting [5]) and 0.185 in assay [2] (setting [7]).

`CCCCc1ccc(NS(=O)(=O)c2ccc(C)c(C(=O)N3CCN(c4cccc(C)c4C)CC3)c2)cc1`: the AC50 in assay [1] (setting [3]) is 25.1 µM [falling, partial curve, poor fit]; in assay [2] (setting [6]) it was 14.8 µM [falling, partial curve]; in assay [2] (setting [8]), 20.9 µM [falling, single point]. For the same molecule, the z-score in assay [2] (setting [4]) worked out at 0.291; in assay [2] (setting [5]), 0.694; in assay [2] (setting [7]) it was 0.417.

For `CN(C)Cc1cccc(N=C(c2ccccc2)c2c(O)[nH]c3cc(C(=O)N(C)C)ccc23)c1`, the half-maximal activity concentration (AC50) in assay [1] (measured here: PEO4 viability) was 13.8 µM [falling, partial curve, poor fit]; in assay [2] (setting [6]), 8.33 µM [falling, partial curve]; in assay [2] (setting [8]) it was 14.8 µM [falling, partial curve]. The z-score in assay [2] (setting [4]) is -0.452; in assay [2] (setting [5]) it was -0.517; in assay [2] (setting [7]), 0.374.

Take `COc1ccc(-c2cc3nccn3c(Nc3ncccc3C(N)=O)n2)cc1OC`: the half-maximal activity concentration (AC50) in assay [1] (measured here: PEO4 viability) is 0.0039 µM [rising, full curve, poor fit]; in assay [2] (setting [6]), 3.72 µM [falling, full curve]; in assay [2] (setting [8]), 2.96 µM [falling, full curve]. Besides, the z-score in assay [2] (setting [4]) was 0.134; in assay [2] (setting [5]), 0.828; in assay [2] (setting [7]) it was 0.121.

On to `NC1(C(=O)N[C@@H](CCO)c2ccc(Cl)cc2)CCN(c2ncnc3[nH]ccc23)CC1`, for which the AC50 was 15.5 µM [falling, partial curve, poor fit] in assay [1] (setting [3]); 0.469 µM [falling, partial curve] in assay [2] (setting [6]); 20.9 µM [falling, partial curve] in assay [2] (setting [8]). Also, the z-score in assay [2] (setting [4]) was 0.63; in assay [2] (setting [5]) it was 1.61; in assay [2] (setting [7]), 0.599.

`CN1CCN(c2cccc(Nc3nc4c(-c5ccc(S(C)(=O)=O)cc5)cccn4n3)c2)CC1`: the concentration at half-maximal activity (AC50) was 24.5 µM [falling, single point] in assay [1] (measured here: PEO4 viability); 23.5 µM [falling, partial curve] in assay [2] (setting [6]); 18.7 µM [falling, partial curve] in assay [2] (setting [8]). The figures for the z-score in assay [2] (setting [4]), in assay [2] (setting [5]) and in assay [2] (setting [7]) were 0.527, -2.55 and 0.384, respectively.

Take `CC1(C)CCC(c2ccc(Cl)cc2)=C(CN2CCN(c3ccc(C(=O)NS(=O)(=O)c4ccc(N[C@H](CCN5CCOCC5)CSc5ccccc5)c(S(=O)(=O)C(F)(F)F)c4)cc3)CC2)C1`: the AC50 is 1.74 µM [falling, full curve] in assay [1] (measured here: PEO4 viability); 13.2 µM [falling, partial curve] in assay [2] (setting [6]); 9.35 µM [falling, full curve] in assay [2] (setting [8]). Besides, the z-score is -0.691 in assay [2] (setting [4]), -0.502 in assay [2] (setting [5]) and -0.121 in assay [2] (setting [7]).

For the molecule `Cc1cc(-c2ncc(CC(=O)Nc3ccc(-c4cnccn4)cn3)cc2C)ccn1`, the AC50 in assay [1] (setting [3]) was 7.76 µM [falling, partial curve]; in assay [2] (setting [6]) it was 14.8 µM [falling, partial curve]; in assay [2] (setting [8]) it was 20.9 µM [falling, partial curve]. Also, the z-score in assay [2] (setting [4]) was 0.219; in assay [2] (setting [5]) it was 0.206; in assay [2] (setting [7]), -0.209.

For `COc1ccc(C[C@@H](C)[C@@H](C)Cc2ccc(OC)c(OC)c2)cc1OC`, the AC50 in assay [1] (setting [3]) is 12.3 µM [falling, partial curve, poor fit]; in assay [2] (setting [6]), 0.743 µM [falling, full curve]; in assay [2] (setting [8]), 1.87 µM [falling, full curve]. In addition, the z-score in assay [2] (setting [4]) was -0.531; in assay [2] (setting [5]) it was -1; in assay [2] (setting [7]), -0.082.
